In the supplement of paper PMC11417369:
± gives the standard deviation of the averaged measurements. The list shows a part of the results.

The sequences below were run on PfAP2-LT AP2 domain (GST-tagged) (assay: gcPBM binding intensity (ln(normalized median fluorescence intensity)); higher = stronger DNA binding).
Summary of the method: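 Plasmodium falciparum DNA-binding domains carrying a GST tag were expressed in E. coli and applied for 1 h, at about 25 μg on average, to an Agilent 4 × 180k array. The array held primer-extended double-stranded 36-bp intergenic genomic probes together with negative controls, and binding took place in 1× PBS with 1% milk, 0.2 mg/ml BSA, 0.5% salmon testes DNA and 0.03% Triton X-100. An Alexa488 anti-GST antibody detected bound protein, and the array was scanned at 488 nm. Binding intensity is taken as the highest Masliner-normalised natural-log median intensity across replicate spots of either probe orientation.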

Row | Sequence | gcPBM binding intensity (ln)
1 | AATATATATATAGGATGTACACATAATTCAAATACA [XGTACX_site6368] | 8.99 ± 0.47
2 | ATACATTTTTGTAAAAGTACATATACATGCCCCCTT [XGTACX_site1367] | 9.15 ± 0.19
3 | ATGGTATATCCAAATAAACACACGTAAATACATAAA [CACACA_site1682] | 9.01 ± 0.5
4 | GTAAGTTTGAATACACGTACAAATTTATTAAAGTCC [XGTACX_site6722] | 8.91 ± 0.39
5 | TTCCAAAATTGCATTTGTACCCAAAAAATGTATACG [XGTACX_site7680] | 8.64 ± 0.35
6 | AGATATTAAAACGTTACACACATTTATATATCTTCT [CACACA_site908] | 9.07 ± 0.4
7 | GCTTTTTATTTTTACCGTACATTATATATGTATATA [XGTACX_site808] | 9.05 ± 0.29
8 | ATCAGTCGGCAGGACAGTACACAGTAGCCAGGAAAT [XGTACX_site2003] | 9.18 ± 0.53
9 | ATATTATTAATTTATAGTACTCATTTTTTTTTTTTT [XGTACX_site3536] | 8.71 ± 0.43
10 | TTTCTAGTTACAAGAGTGCATAATATATAAAAATAA [GTGCAC_site9874] | 8.47 ± 0.45
11 | TATATATATATATATACACACATTTTTAATGATAAA [CACACA_site2695] | 9.39 ± 0.014
12 | TATAAATACAATTCACAAGAGATCATGTATCAAACC [CACACA_negctrl_site1219] | 8.84 ± 0.42
13 | ATATAATAAATATGTTGTACTATAAAAAATAGCCAT [XGTACX_site4710] | 8.78 ± 0.33
14 | TATATATTATATATATGTACATATTGTTGTGTATAT [XGTACX_site767] | 9.01 ± 0.44
15 | ATCTCTGTAAAGATCACACATATATTTTTGTTATAT [CACACA_site5094] | 8.94 ± 0.44
16 | TTTATAATTTATATCACACATATATCTGTAATAAAT [CACACA_site5048] | 8.62 ± 0.45
17 | CATATATGTTATATTTAACACACATATAAGGTACAT [CACACA_site8105] | 9.02 ± 0.33
18 | CAGCTCTTAAAAATTACACACATATACACATATATA [CACACA_site9073] | 8.97 ± 0.38
19 | TTATTACACACATATGTGCACATATAAAAGTACACG [GTGCAC_site9581] | 9.16 ± 0.27
20 | AAAAATTCTTGGCGCACACACTTTAAAAATTAAAAA [CACACA_site4498] | 8.98 ± 0.43
21 | TTATATTTTCAGAATAGTACACATATATACATATAT [XGTACX_site2519] | 8.78 ± 0.54
22 | GATCATTTAAAATAAGTAATATTTTTTTTACTTTTG [TGCATGCA_negctrl_site602] | 8.38 ± 0.52
23 | TTATAAAAGAAAAAAAAAAAAAAAAAAAAAAAAAAA [CACACA_negctrl_site1006] | 8.03 ± 0.37

Row | Sequence | gcPBM binding intensity (ln)
24 | TTAGTCGAATGATGTACACACATACAAAACATTTAT [CACACA_site6076] | 9.22 ± 0.35
25 | ACTAATTACTATAAAACACACATATATATATATATA [CACACA_site2591] | 9.72 ± 0.46
26 | AGAAAATATTTTGGTTGTACAGGCGATTTATATGTT [XGTACX_site7253] | 9.08 ± 0.38
27 | AAAAAAAAAAAAAAAAAAAAAAAAAAAAGAAAAAAG [GTGCAC_negctrl_site583] | 8.42 ± 0.31
28 | ATATTATTAATTTGTTGTACAGTTCTTTATTTATAG [XGTACX_site7932] | 8.84 ± 0.32
29 | TATATGTTTGAATATACACACAACATATATATATAT [CACACA_site4066] | 9.22 ± 0.26
30 | TATATTAAAAAAAAATGTACACATATATATATATAT [XGTACX_site4524] | 9.34 ± 0.028
31 | CCAGGAAAAATTTATTGTACATATATTTTTATGCTC [XGTACX_site7154] | 8.64 ± 0.44
32 | TATTTTTGGTTATGTGTGCACTATGAACAACAAAAT | 8.9 ± 0.26
33 | TATATCTCTTTATTCACACATACGTTTTAAAATAAT [CACACA_site5542] | 8.77 ± 0.45
34 | TATAAATAAAGACACACACACACACCGTATAATTAC [CACACA_site7829] | 10 ± 0.25
35 | TTCCCAACATGATATTGTACATTTAATTATAATTAA [XGTACX_site7029] | 8.53 ± 0.34
36 | TAATAAAACATATATACACACATTAGATATACATAT [CACACA_site6897] | 9.07 ± 0.36
37 | GAAAGAAAATATTAAGTGCATATTTTAATGATACAA [GTGCAC_site9712] | 8.73 ± 0.54
38 | ATAAAAATAAAAAAAACACACATACCTTATTTTTGT [CACACA_site5452] | 8.93 ± 0.47
39 | ATTTTCCATATATTTTGTACATATGTATATTTTCCC [XGTACX_site7795] | 9.2 ± 0.49
40 | TATAAAAAATTATGTTGTACGTAATATAAAATTTGT [XGTACX_site7122] | 8.56 ± 0.38
41 | AATCAAAATAAATTAACACACAATTTTAATATTGTT [CACACA_site10] | 8.74 ± 0.39
42 | AAATATAAATGGTAATACACATACACACACACATAC [XGTACX_negctrl_site459] | 9.96 ± 0.24
43 | TATTTTTAACAGTGCACACATAACTTAATTATATGT [CACACA_site2194] | 9.12 ± 0.33
44 | AGATATTTTTCTTAAGTACACACTAATTAGAAACTA [CACACA_site7897] | 8.55 ± 0.46
45 | TTTTTATTTTAAAAGAATAATTATCTAATATCTATA [CACACA_negctrl_site371] | 8.18 ± 0.47
46 | TCGAACGTATCATGTGTACACACAAATTGTTTTTTT [CACACA_site8623] | 9.28 ± 0.35

Row | Sequence | gcPBM binding intensity (ln)
47 | GTATAAAAGTAACTAGTGCATTACATATGAATAAAA | 8.88 ± 0.52
48 | CCTTGCCCCAGGAGTTCACACACATAATAGATTGTC [CACACA_site8138] | 9.3 ± 0.39
49 | AAAAGAAGAAACAAAACACACACAGTCTTCTTTTCT [CACACA_site9015] | 9.62 ± 0.4
50 | ATTTGTGTTATTCGAAGTACGGATCATTTGAAATAA [XGTACX_site2510] | 8.56 ± 0.41
51 | TTTATGAGGTTACTATGTACGCAAATTATGTAATAA [XGTACX_site325] | 8.55 ± 0.38
52 | TCAAATTATTAAAATACACACATATTATATATATAT [CACACA_site2530] | 8.89 ± 0.42
53 | AGCAATTTGGGGTGTACACACACCTTATTTAAATTA [CACACA_site1157] | 8.96 ± 0.5
54 | GACACCTGCATGAAAGTGCAAAATAGAAAAGGAACA [GTGCAC_site9593] | 9.18 ± 0.47
55 | TTACCTCTTTGAAATATACACACTAAACATATCAAC [CACACA_site2455] | 8.88 ± 0.4
56 | AAGGAATAATAATAAATGTAAAGAAAAGCATACTGA [CACACA_negctrl_site36] | 8.82 ± 0.49
57 | AACACGCACAGACACACACACAAAAATGATTAAAAA [CACACA_site7195] | 9.71 ± 0.61
58 | AAATACCTTATATATACACACTATGTTTTTCTTTTT [CACACA_site4792] | 8.93 ± 0.43
59 | AAAAAAATAAATAAGACACACACAAAAAAAAAAAAA [CACACA_site8404] | 9.26 ± 0.45
60 | TCTTGTTATAATAATCAATATATGGGTATACTTATG [CACACA_negctrl_site1618] | 8.77 ± 0.47
61 | AAAAGGATTTTTTATACACACACTAACTAATGTATA [CACACA_site2356] | 9.01 ± 0.4
62 | AAATAATAAATATATCGTACAAATATCATATATAAA [XGTACX_site2771] | 8.89 ± 0.42
63 | TTTCCTCATTTTATCATACACACTTGTTTATATGTG [CACACA_site8202] | 9.11 ± 0.45
64 | TCCTGTTGAGAATGGCGTACATATAAATATTATATA [XGTACX_site1841] | 8.55 ± 0.42
65 | TTTTTTCTTTTTATAACACACAGGTGAAAAATAATA [CACACA_site1850] | 8.36 ± 0.43
66 | TATTACTTTATATATACACACATATAACATAAATGC [CACACA_site3948] | 8.96 ± 0.35
67 | CAGGTTCTTATATAGTGTACTATAGACATTCAATTG [XGTACX_site7239] | 8.79 ± 0.39
68 | TAAATAATAATAAAATGTACATTATATATGTATATG [XGTACX_site8672] | 8.71 ± 0.4
69 | TTTTTTTTTTTTTTCTGTACTGATACTTATAGAGTT [XGTACX_site4736] | 8.57 ± 0.54

Row | Sequence | gcPBM binding intensity (ln)
70 | ATATACTTACATATTACACACAATATTTTTAAATGG [CACACA_site5916] | 8.91 ± 0.38
71 | CTTTTGCCCAAAAAGGTACACACCACAAAGTACATA [CACACA_site8169] | 8.79 ± 0.47
72 | TTGTATATACTATACACACACATACATACATACATA [CACACA_site814] | 9.33 ± 0.31
73 | TATTTATAATTAAATACACACATATATTATAGATTT [CACACA_site6435] | 8.69 ± 0.35
74 | TTTTATTCATCATATTGTACATTCTTGTATTTATAG [XGTACX_site8534] | 8.86 ± 0.41
75 | TCCCTGATGTTATTTAATATACCATAAAAAAAAAAA [CACACA_negctrl_site1472] | 8.28 ± 0.41
76 | AATAAAAAATAAAAAAGTACATGATGAAAAGGTTTA [XGTACX_site7615] | 8.8 ± 0.56
77 | CACACTTTATAATGTTGTACGATACATTATACCAAA [XGTACX_site941] | 8.81 ± 0.4
78 | TATATATATATATATACATGCATACAATTTTATGAG [TGCATGCA_site466] | 9.62 ± 0.64
79 | ATCTCAAATATAATAAATTATTAGGTATATATATAT [CACACA_negctrl_site1828] | 8.77 ± 0.21
80 | ACCCATATTCTTTTTACACACTTGAATAAAAAATAT [CACACA_site4797] | 8.73 ± 0.38
81 | GAGATATAAAAGTGTACACATATTGTTATCCATATT [CACACA_site5441] | 8.9 ± 0.46
82 | TATATACAAATATGTACACACATTACAGATGTACAT [CACACA_site6586] | 9.15 ± 0.4
83 | TAGAAAAAATAAAATAGTACACATCCAAAAAAAAAA [XGTACX_site7829] | 8.81 ± 0.44
84 | CCAAACAAAAAAAAAAGTACATAAAACACCTATTTG [XGTACX_site5645] | 8.81 ± 0.47
85 | ATAATTAGGGTGTATTTCATTTCATTTCATTTTATT [CACACA_negctrl_site1418] | 9.04 ± 0.4
86 | AATATATAAATATATACACACAAAAACATATATATA [CACACA_site1318] | 9.14 ± 0.48
87 | AACGTATTATTTATCTGTACAAAATAATAACGTATT [XGTACX_site813] | 8.73 ± 0.35
88 | TTTTGTTTTTTCAATGTGCACTTAGGATGTTTTTAT [GTGCAC_site9565] | 8.99 ± 0.43
89 | TAAATAAAAATACAGTGTACTTTTTTCTATTTAAAA [XGTACX_site3288] | 8.22 ± 0.47
